In PubChem BioAssay AID485297 (National Center for Advancing Translational Sciences (NCATS), 2010):
The campaign covered roughly 320,000 compounds. About 9,100 (2.8%) were called active. Inconclusive results, whose numbers are uncertain, are shown with a selection of clear calls. Calls come from the whole dose curve; as a rule, active = well fitted activation curve with a large enough effect; inconclusive = small, poorly fitted or top-dose-only effect; inactive = no such curve, though single readings can be large or run the other way. No potency is given beside an inconclusive call; the fits are too rough.

experiment: qHTS Assay for Rab9 Promoter Activators; details: Huh7 Rab9 promoter-luciferase reporter, luminescence, 24 h; series mostly up to 9.22 µM; note: nearly all actives have a fitted effect of over 60% in size; for activation, negative = inhibition: % of control where 0% means no effect
Procedure, shortened: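 Rab9 promoter-driven luciferase in stably transfected Huh7 cells; 1500 cells/well rested 2 h, exposed to compound in DMSO for 24 h at 37 °C, 5% CO2. Luminescence read 10 min after adding luciferase reagent at ambient temperature.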
Potency is the fitted concentration of half-maximal effect; tags give direction and shape of the fitted curve.

SMILES | activation, negative = inhibition | Potency
CNc1ccc2nc3ccccc3[n+](C)c2c1 | inactive: -22.4% [at 1.84 µM] | –
S=c1[nH]nc(Cn2c(-c3ccccn3)nc3ccccc32)n1-c1ccc2c(c1)OCCO2 | – | inconclusive [activator, partial curve]
O=C(CNC(=O)c1ccccc1)Nc1ccc(Br)cc1C(=O)c1ccccc1 | – | inactive
C=C(CO)CC1CC(O)[C@]2(C)OC3CC4OC5C[C@]6(C)O[C@]7(C)CCC8OC9C[C@]%10(C)OC%11C(C)=CC(=O)OC%11CC%10OC9C[C@@H](C)C8OC7CC6O[C@]5(C)C/C=C\C4OC3CC2O1 (some centres undefined) | – | inactive
O=c1c2ccccc2[nH]c(=S)n1-c1ccc2c(c1)OCCO2 | – | inconclusive [activator, single point]
Cc1ccc(Cn2cc(C=O)c(-c3ccc(C)cc3)n2)cc1 | – | inconclusive [activator, partial curve]
C=CCn1c(O)c(C(C)=NCc2cc(OC)cc(OC)c2)c(=O)[nH]c1=O | – | inconclusive [activator, single point]
O=c1[nH]cnc2[nH]ncc12 | – | inconclusive [activator, single point]
O=C(CSc1nnc(NC(=O)c2cccc(F)c2)s1)NCc1ccco1 | – | inconclusive [activator, partial curve]
Clc1ccc2sc(C3CCNCC3)nc2c1 | – | inconclusive [activator, partial curve]
CNC(=O)Oc1cccc(-c2cn3cc(OC(=O)NC)ccc3n2)c1 | – | inconclusive [activator, single point]
CC(=O)Nc1cccc2c1Cc1ccccc1-2 | – | inconclusive [activator, partial curve]
CN1CC=C(/C=C/c2ccc(-c3ccccc3)cc2)CC1 | – | inconclusive [activator, partial curve]
Cc1nc2ccc(NC(=O)C3COc4ccccc4O3)cc2s1 (centres undefined) | – | inconclusive [activator, single point]
COc1ccc(NC(=O)CN(C)S(=O)(=O)c2ccc3[nH]c(=O)oc3c2)cc1 | – | inconclusive [activator, single point]
COc1ccc(-n2nc(C(=O)NCC(=O)N3CCC4(CC3)OCCO4)c3ccccc3c2=O)cc1 | – | inconclusive [activator, partial curve]
CC(=O)C1=NOC(CNc2ncc(C(F)(F)F)cc2Cl)C1 (centres undefined) | – | inconclusive [activator, single point]
CN1CCc2c(C#N)c(Cl)nc(Cl)c2C1 | – | inactive
CCCCCCOc1ccc(CN2CCN(C)CC2)cc1 | – | inconclusive [activator, single point]
Cc1c(OC(=O)N(C)C)ccc2c1O/C(=C\c1ccco1)C2=O | – | active: 3.98 µM
Clc1cccc(Cl)c1Cn1nnc(N2CCCC2)n1 | – | inconclusive [activator, partial curve]
CC(C)(C)c1ccc(C(=O)C2CCCN(Cc3ccon3)C2)cc1 (centres undefined) | – | inconclusive [activator, single point]
CC(=O)c1ccc(NC(=O)CSc2nc(=O)cc(N)n2-c2ccccc2)cc1 | – | inconclusive [activator, partial curve]

SMILES | activation, negative = inhibition | Potency
COc1ccc(NC(=O)CCCn2c(=O)oc3ccccc32)cc1Cl | – | inconclusive [activator, single point]
CCOc1ccc(NC(=O)C(=S)NC2CCCCC2)cc1 | – | inconclusive [activator, partial curve]
O=C1c2ccccc2C(=O)N1Cc1nc2ccccc2c(=O)n1-c1cccnc1 | – | inconclusive [activator, single point]
C=CCN1C(=O)/C(=C/c2cccs2)C(=O)NC1=S | – | inactive
CC(C)(C)c1ccc(OC(=O)N2CCCCC2)cc1 | – | active: 3.16 µM
CCOc1ccc(C2CC(c3c(O)n(C)c(=O)n(C)c3=O)=NN2)cc1 (centres undefined) | – | inconclusive [activator, single point]
N/C(=N\N=C/c1ccc(-c2ccc(O)c(C(=O)O)c2)o1)N[N+](=O)[O-] | – | inactive
O=C(CSc1ccccc1)N1CCC2(CC1)OCCO2 | – | inconclusive [activator, single point]
O=C(/C=C/c1ccccc1)C1C(=O)c2ccccc2C1=O | – | active: 2.24 µM
O=C(C1CC(c2ccccc2O)=NO1)N1CCC2(CC1)OCCO2 (centres undefined) | – | inconclusive [activator, partial curve]
COc1ccc(NC2=NC(C)(C)CS2)cc1 | – | inconclusive [activator, partial curve]
O=C1NC(=O)C(CCc2ccncc2)(C2CCCCC2)C(=O)N1 | – | inconclusive [activator, single point]
C[n+]1c(-c2ccccc2)cc(-c2ccc(O)cc2)cc1-c1ccccc1 | – | inconclusive [activator, single point]
CC(Cc1ccccc1)/[N+]([O-])=C\c1ccc(C(F)(F)F)cc1 (centres undefined) | – | inconclusive [activator, single point]
Clc1cccc(/C=N\Nc2nccs2)c1 | – | inconclusive [activator, partial curve]
c1ccc2c(CN3CCCCCC3)c[nH]c2c1 | – | inconclusive [activator, single point]
CC(C)(C)C(=O)c1cn(CC(=O)NCc2ccco2)c2ccccc12 | – | active: 3.16 µM
O=C1C2C3CCC(C3)C2C(=O)N1c1ccc(OS(=O)(=O)c2ccccc2)cc1 (centres undefined) | – | active: 1.12 µM
Cc1c(C(=O)N2CCOCC2)sc2nc(-c3ccccc3)cn12 | – | active: 2.51 µM
COc1cc(C(C)=O)ccc1OCc1cc(C(=O)N(C)CCC2CCCCO2)no1 (centres undefined) | – | active: 1.58 µM
O=C(c1ccccc1)c1ccc(N=Nc2c(O)[nH]c(=O)[nH]c2=O)cc1 | – | inconclusive [activator, partial curve]
COc1ccc(-n2nc(C(=O)NCC(=O)N3CCC4(CC3)OCCO4)c3ccccc3c2=O)c(OC)c1 | – | inconclusive [activator, partial curve]
COc1ccc(-c2nc3ccccc3c(=O)o2)cc1 | – | inconclusive [activator, single point]

SMILES | activation, negative = inhibition | Potency
O=C(OCC(=O)c1cccs1)C1=COCCO1 | – | inconclusive [activator, single point]
Cc1cc(C(=O)CN2C(=O)c3ccccc3C2=O)c(C)n1C1CC1 | – | inconclusive [activator, partial curve, poor fit]
COC(=O)C(O)(c1ccc(NC(=O)c2ccccc2)cc1)C(F)(F)F (centres undefined) | – | inconclusive [activator, single point]
c1ccc(CN2CCc3nc4ccccc4cc3C2)cc1 | – | inconclusive [activator, partial curve]
CCCc1cc(=O)oc2cc(OCc3ccc(C(=O)O)o3)ccc12 | – | inconclusive [activator, partial curve]
O=C(Cn1ncc2c3ccccc3n(Cc3ccccc3)c2c1=O)N1CCC2(CC1)OCCO2 | – | inconclusive [activator, partial curve]
CCCCCCOc1ccc(CN2CCN(CCO)CC2)cc1 | – | active: 3.98 µM
COc1ccc(N2CCN(Cc3nc4ccccc4[nH]3)CC2)cc1 | – | inactive
CCN(CC)c1ccc(C=C2C(=O)N(C)C(=S)N(C)C2=O)o1 | – | inconclusive [activator, single point]
COC(=O)C1=C(c2ccc(F)cc2OCc2ccccc2)C[C@@H]2CC[C@H]1N2C(=O)NCc1ccc(N(C)C)cc1 | – | inactive
Cc1cccc(OCCn2c(=O)oc3ccc(C)cc32)c1 | – | inconclusive [activator, partial curve]
Cc1ccc(-n2sc3ccccc3c2=O)cc1 | – | inconclusive [activator, single point]
CSc1cccc(CNC(=O)C2CCC(=O)N(Cc3cccc(C(F)(F)F)c3)C2)c1 (centres undefined) | – | inconclusive [activator, partial curve]
C=C1C[C@]2(O)[C@@]3(C)CCC(=O)C(C)(C)C3=C(O)C(=O)[C@@]2(C)[C@@H]2C(=O)O[C@@](C)(C(=O)OC)C(=O)[C@@]12C | – | inconclusive [activator, single point]
COC(=O)C(O)(c1ccc(NC(=O)NC2CCCCC2)cc1)C(F)(F)F (centres undefined) | – | inconclusive [activator, partial curve]
CCC(=O)Nc1ccc(C(=O)OCc2ccccc2Cl)cc1 | – | inconclusive [activator, partial curve]
O=S(=O)(c1ccccc1)N1CC1c1ccccc1 (centres undefined) | – | inconclusive [activator, single point]
O=c1[nH]c(O)c(/C=C2/C=CC(c3cc(Cl)ccc3Cl)=N2)c(=O)[nH]1 | – | inactive
O=C(Nc1ccccc1F)Oc1cccc(OC(=O)Nc2ccccc2F)c1 | – | active: 2.82 µM
CCc1ccc(N2C(=O)NC(=O)/C(=C/c3cccn3CCOc3ccc(C(C)CC)cc3)C2=O)cc1 (centres undefined) | – | inconclusive [activator, partial curve]
COc1cccc(C2=NOC(C(=O)N3CCC4(CC3)OCCO4)C2)c1 (centres undefined) | – | inconclusive [activator, partial curve]
CN(C)C(=O)Oc1ccc(Cl)c2ccccc12 | – | inconclusive [activator, partial curve]
O=C(C1CC(c2ccc(F)cc2)=NO1)N1CCC2(CC1)OCCO2 (centres undefined) | – | inconclusive [activator, partial curve]
